According to PubChem BioAssay (NCATS):
Inconclusive results, whose numbers are uncertain, are shown with a selection of clear calls. For some of these results: A potency beside an inconclusive call is a rough fit, not a confirmed value. Calls of active or inactive are those of the source. Calls follow the shape of the dose curve; as a rule, active = well fitted curve in the direction sought with a large enough effect; inconclusive = small, poorly fitted or top-dose-only effect, or another doubt; inactive = no such curve, though single readings can be large; an effect the other way counts as inactive or inconclusive.

Assays:
[1] = qHTS of pediatric cancer cell lines to identify multiple opportunities for drug repurposing: Primary screen for RD cells (AID 1347104); also: nearly all actives have a fitted effect of over 55% in size; also: potency is read from the fitted curve at half-maximal effect
In short: (§1)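 Primary screen of approved and investigational compounds on cells in growth media at 37 degrees C, 5% CO2. MIPE set at 11-point and NPC set at 8-point dilutions; viability scored by ATP-based luminescence at 48 hours.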

[2] = qHTS of pediatric cancer cell lines to identify multiple opportunities for drug repurposing: Primary screen for MG 63 (6-TG R) cells (AID 1347105); conditions: MG 63 (6-TG R) viability, CellTiter-Glo, 48 h; series mostly up to 46 µM; also: potency is read from the fitted curve at half-maximal effect; nearly all actives have a fitted effect of over 50% in size
In short: as §1

[3] = qHTS of pediatric cancer cell lines to identify multiple opportunities for drug repurposing: Primary screen for Rh41 cells (AID 1347108); also: potency is read from the fitted curve at half-maximal effect; nearly all actives have a fitted effect of over 70% in size
In short: as §1

[4] = qHTS of pediatric cancer cell lines to identify multiple opportunities for drug repurposing: Primary screen for Rh30 cells (AID 1347107); also: potency is read from the fitted curve at half-maximal effect; nearly all actives have a fitted effect of over 75% in size
In short: (§2)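 Viability after 48 h compound treatment at 37C, 500-1,000 cells/well, read as ATP luminescence with CellTiter-Glo. Primary screens used 11-point (MIPE, 0.78 nM-46 µM) or 8-point (NPC, 0.59 nM-46 µM) final concentrations; follow-up screens used 11-point dilutions.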

[5] = qHTS of pediatric cancer cell lines to identify multiple opportunities for drug repurposing: Confirmatory screen for NB1643 cells (AID 1347109); also: potency is read from the fitted curve at half-maximal effect; nearly all actives have a fitted effect of over 45% in size
In short: as §2

[6] = qHTS of pediatric cancer cell lines to identify multiple opportunities for drug repurposing: Confirmatory screen for A673 cells (AID 1347110); also: nearly all actives have a fitted effect of over 65% in size
In short: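 A673 cells seeded at 500-1,000 cells/well, rested 5 h, then dosed; primary MIPE 11-point (0.78 nM to 46 µM), NPC (0.59 nM to 46 µM); confirmatory 11-point. CellTiter-Glo luminescence after 48 h.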

[7] = qHTS of pediatric cancer cell lines to identify multiple opportunities for drug repurposing: Confirmatory screen for SK-N-MC cells (AID 1347111);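 also: potency is read from the fitted curve at half-maximal effect; cells exposed to compound for 48 h before the readout; nearly all actives have a fitted effect of over 70% in size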
In short: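 SK-N-MC cells at 500-1,000 cells/well in growth media were pre-incubated 5 h, then exposed to compounds at 11-point dilutions for 48 h at 37 degrees C, 5% CO2. Viability was read as CellTiter-Glo luminescence.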
Tags tell the direction and shape of the fitted curve.

COC(=O)Nc1nc2ccc(C(=O)C3CC3)cc2[nH]1
Potency [1]: inconclusive: 0.841 µM [cytotoxic, full curve] | Potency [2]: inconclusive: 0.531 µM [cytotoxic, full curve] | Potency [3]: inconclusive: 0.944 µM [cytotoxic, full curve, poor fit]

CCCc1nc2c(C)cc(-c3nc4ccccc4n3C)cc2n1Cc1ccc(-c2ccccc2C(=O)O)cc1
Potency [1]: inactive

Cc1ccc2c(n1)Oc1ccc(C(C)C(=O)OCC(=O)N(C)C)cc1C2 (stereo unspecified)
Potency [1]: inactive

CNC1[C@H](O)C(O[C@@H]2C(O)C(O[C@H]3O[C@H]([C@@H](C)NC)CC[C@H]3N)[C@@H](N)C[C@H]2N)OC[C@]1(C)O (stereo partly specified)
Potency [1]: inactive | Potency [2]: inconclusive: 0.0296 µM [cytotoxic, full curve, poor fit]

C[C@H](Cc1ccc(O)c(O)c1)[C@@H](C)Cc1ccc(O)c(O)c1
Potency [1]: inconclusive: 16.6 µM [cytotoxic, partial curve] | Potency [2]: inconclusive: 37.2 µM [cytotoxic, single point] | Potency [4]: inconclusive: 11.8 µM [cytotoxic, partial curve]

COc1ccc(-c2oc3cc(OC)ccc3c2C(=O)c2ccc(C#N)cc2)cc1
Potency [1]: inconclusive: 0.935 µM [cytotoxic, full curve] | Potency [2]: inconclusive: 37.2 µM [cytotoxic, single point] | Potency [3]: inconclusive: 29.6 µM [cytotoxic, single point] | Potency [5]: inconclusive: 0.0033 µM [rising, full curve] | Potency [6]: inactive | Potency [7]: inconclusive: 36.9 µM [cytotoxic, single point]
